# Reference: the supplement of paper PMC3334620
# The full ranking holds about 33,000 sequences; the median of “E-score (-0.5 to 0.5)” is about -0.054, and the highest 2% start at about 0.39. The list shows a part of the results.
# Target: Ylr278c (UniProt Q05854)
# Test: PBM E-score (8-mer binding enrichment) (E-score (-0.5 to 0.5)); higher = stronger / more preferred TF binding; most listed sequences are background and not binding sites
# Conditions: protein concentration: 200 nM; construct: GST-DNA-binding domain
# Procedure, shortened: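 Each ungapped eight-base word and its reverse complement, pooled, received an E-score from the Universal PBM Analysis Suite. Underlying scans, normalised with masliner, recorded fluorescent anti-GST bound to GST-tagged yeast transcription factors. These were applied at about 100-200 nM to universal all-10-mer Agilent arrays double-stranded by primer extension.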
row,Sequence,PBM E-score
1,ATGAGCGG,0.151
2,AGACGACA,-0.0238
3,ACCATAAG,-0.284
4,ATATCTGA,0.042
5,GAGATTGA,-0.0337
6,CATTCCCA,-0.0686
7,ATGCCGCA,0.2
8,ACCTGGAA,-0.0949
9,CAGACGTA,-0.145
10,GACCAAGA,-0.0615
11,TTCACAAA,0.00647
12,CAGGGATA,-0.242
13,CCCAGCTA,-0.249
14,GCTCATCC,-0.0325
15,AAACCGCC,0.217
16,CGCACGTA,-0.121
17,ACGCCCCC,0.069
18,TTACCTAA,-0.0277
19,GAATATTA,0.0567
20,GGGCGTAC,0.0219
21,ACCATTTA,-0.0182
22,CTGCGGTA,0.0417
23,CCAATGCG,-0.0595
24,GTTGAAGA,-0.25
25,CGCCCAAC,0.0317

row,Sequence,PBM E-score
1,CAATGCGA,-0.101
2,ACCGCTGG,-0.15
3,AGGGACAG,-0.356
4,AGAGTAAT,0.0395
5,TCATTGCA,-0.214
6,TCTCAACA,-0.171
7,GAACTCGC,-0.0634
8,CCCGCGCC,0.315
9,AGAACGTA,-0.147
10,AATTAGCG,0.176
11,ACTTCCAG,-0.106
12,AGTAGCCG,0.153
13,GAAGAGGA,-0.185
14,ACTCTTCT,-0.197
15,AGGTCCGA,0.404
16,CTAGCTCC,0.184
17,ATTCTAAG,-0.0468
18,AATGTCTC,0.0265
19,AACAATGA,-0.0711
20,CCCTCCCC,0.233
21,CCACCCCG,0.244
22,CCTCAAAC,0.023
23,AAAAGGGC,-0.238
24,AGGTAGAA,-0.0888
25,CGAGTTGA,0.0194

row,Sequence,PBM E-score
1,GCACGGAA,0.259
2,GCGCATCA,-0.0582
3,AAAGGTGC,-0.152
4,GGGACTAA,-0.0466
5,AGCTGCTC,-0.151
6,CAGCTTAC,-0.118
7,AAGTCCAA,0.0759
8,ATCGTACC,-0.0449
9,CACGCAAA,-0.0811
10,AATTTCCA,0.169
11,GGTAGGCA,-0.151
12,TACAGGGA,-0.0236
13,AAGCGACC,0.133
14,CGTCGGAC,0.397
15,AACGACCA,-0.166
16,GGGGGCTA,-0.268
17,AGAACTGG,0.0018
18,GGAGGACA,0.0763
19,ATGCTTCA,-0.152
20,AATGGCAT,0.222
21,AATACTGA,-0.238
22,GGACCAGA,-0.0147
23,TAAGACCA,-0.26
24,ACATACGG,0.114
25,GGTCTAAA,-0.171

row,Sequence,PBM E-score
1,CTCCACCA,-0.135
2,ACTTTCTA,-0.254
3,GAAACAAC,0.0746
4,CGAGCTGC,-0.00491
5,AGTCCCCG,0.158
6,AGTGAGAT,-0.126
7,AATTGATC,0.00491
8,CCGCTGGC,-0.0712
9,GAAACACC,0.0566
10,CATAAGGG,0.0528
11,GCCCACTA,-0.275
12,AGCCTATA,-0.202
13,AGGGTCGG,0.226
14,AGAGCACT,-0.193
15,CGGGTATA,0.279
16,CCCTTGCG,-0.263
17,ATGCGTAA,-0.1
18,TATACCCA,-0.0534
19,CGCAAGTC,0.0799
20,AGTGTATC,-0.0641
21,ATGACCGA,0.0898
22,CTACCCGA,-0.0608
23,AGAGGCGG,0.0852
24,AAACTCTG,-0.126
25,CGGGCACC,0.287

row,Sequence,PBM E-score
1,AAAAGTTC,0.127
2,ATTTTCTA,-0.12
3,GGTACCAA,-0.00851
4,TAGTGAAA,-0.148
5,CGTACTAG,-0.259
6,GGACCTTA,0.0338
7,CCCTAGGC,-0.0625
8,CACTGTCC,-0.052
9,AACTGATA,-0.069
10,CTGCAACC,-0.27
11,CATTTGAA,0.0217
12,CTCTCCGC,0.325
13,GTACTTTA,-0.191
14,CCCAGCCG,0.103
15,AATAGATG,0.0154
16,GTTAGTTA,0.116
17,CGTGCTGC,-0.223
18,GCCGAGCC,0.198
19,ACACTCGA,-0.167
20,CACGGGAC,0.165
21,GCCCAAGC,-0.0617
22,AATGCGAC,0.139
23,GCAGCCGC,0.0664
24,CTAAATTA,0.00555
25,GCTTGGAC,-0.147

row,Sequence,PBM E-score
1,AGTAGCGC,0.0543
2,GGTCGCCA,-0.157
3,AAAACTTG,-0.159
4,CCATCCTA,-0.106
5,CGGGCCAC,0.201
6,TAGAATCA,-0.0548
7,ACTAGTGA,-0.227
8,ATTAACCC,0.129
9,CTCCCTTA,-0.173
10,CCCATGTC,-0.0988
11,CCCAATGA,-0.195
12,AAGGTGCT,-0.154
13,TCGAAAGA,-0.245
14,CTAAGCAC,-0.0493
15,GACTAGGC,-0.18
16,CTCCATCC,-0.085
17,AACAACCA,-0.187
18,GGTATGGA,0.0461
19,ACGCGTAG,-0.00027
20,CATCACGG,0.1
21,GGATCTAC,-0.0619
22,ATACAAGA,-0.181
23,AACTGACC,0.152
24,CGATGTAA,0.0219
25,AATGAGCG,0.0729

row,Sequence,PBM E-score
1,CGATATCC,0.264
2,AATTGGTG,-0.213
3,GCGTCCAC,0.0269
4,ACGGCGTC,0.275
5,CGTATAAC,-0.101
6,GCTTAAAA,-0.0787
7,CATTTCCA,-0.0597
8,ATACTGCC,0.013
9,CAGTGTCC,0.0722
10,CCACCTTA,-0.0276
11,GTCAGGAA,-0.0709
12,ATAGCTTG,-0.188
13,ACGCTGAT,-0.199
14,AACCGGCT,0.233
15,GTAAAATA,-0.0849
16,CTCGCCCC,0.0377
17,TAGTAAGA,-0.186
18,ATAATAAG,-0.0794
19,CGGCGGTC,0.312
20,CCTCACTC,0.0281
21,AGGCTAAC,-0.182
22,GTGTTGTA,-0.123
